Source: the supplement of paper PMC10300432
Recombinant human monoclonal antibodies (heavy:light variable regions). ELISA EC50 on the named antigen, from 10 µg/ml down; IC50 against spike pseudovirus on HT1080-ACE2 cells, 48 h; lower = stronger. Calls: IC50 above 1,000 ng/ml = non-neutralizing; EC50 above 1,000 ng/ml = non-binder.

Legend:
[1] = molecular target: SARS-CoV-2 Omicron BA.1 spike pseudovirus; assay: pseudovirus neutralization IC50; higher = weaker neutralization
Method: (§1)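 Single-round luciferase reporter pseudovirus mixed with antibody dilutions and put on HT1080-ACE2 clone 14 cells for 48 h; signal relative to no-antibody wells, four-parameter fit.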

[2] = molecular target: SARS-CoV-2 Omicron BA.4/5 spike pseudovirus; assay: as above
Method: as §1

[3] = molecular target: SARS-CoV-2 Wuhan-Hu-1 spike pseudovirus; assay: as above
Method: as §1

[4] = molecular target: SARS-CoV-2 Wuhan-Hu-1 spike receptor-binding domain; assay: ELISA binding EC50; higher = weaker binding; ELISA of recombinant human antibody on coated antigen, from 10 µg/ml in fourfold dilutions; four-parameter fit.

B1: C5206 (protein)
chain 1: QVQLVESGGGVVQPGRSLRLSCAASGFTFSSSAMHWVRQTPGRGPEWVAVISHEGSQKYYVDSVKGRFTISRDNAKNTLYLQMNSLRAEDTAVYYCARWGRHPIYDSSGYPSYYYYGMDVWGQGTTVTVSS
chain 2: DIQMTQSPVSLPVSVGDRVTITCRASQDISNYLNWYQQKPGRAPKLLIYDASNLETGVPSRFSGSGSGTDFTFTISSLQPEDIATYYCQQYDDLPYTFGQGTKLDIK
- pseudovirus neutralization IC50 [1]: > 1 µg/mL
- pseudovirus neutralization IC50 [2]: > 1 µg/mL
- pseudovirus neutralization IC50 [3]: 0.00537 µg/mL
- ELISA binding EC50 [4]: 0.00414 µg/mL

B2: C5044 (protein)
chain 1: EVQLVESGGGLVQPGGSLRLSCSASGFTFSNYALHWVRRAPGKGLEYVSGINSDGESTYHADSVKGRFTISRDNSKNTLYLQMSRLRAEDTAVYYCVREGGNYFVLGDFDVWGQGTMVTVSS
chain 2: SYELTQPPSVSVAPGKTARITCGGNSIGSKSVHWYQQKPGQAPLLVIYYDSDRPSGIPERFSGSNSGNTATLTISRVEAGDEADYYCQVWDTSCLFGGGTKLTVL
- pseudovirus neutralization IC50 [1]: 0.757 µg/mL
- pseudovirus neutralization IC50 [2]: > 1 µg/mL
- pseudovirus neutralization IC50 [3]: 0.547 µg/mL
- ELISA binding EC50 [4]: 0.00341 µg/mL

B3: C5207 (protein)
chain 1: QVQLVESGGGVVQPGRSLRLSCAAFGFTFTSSAMHWVRQAPGKGLEWVAVISHDGTNKYYGDSVRGRFTISRDNSKNTLSLQMDSLRAEDTAVYHCARWGRHPIYDSSGYPTHYYYGMDVWGPGTTVTVSS
chain 2: EIVLTQSPGTLSLSPGERATLSCRASQSVSGSYLAWYQQKVGQAPRLLIYGASSRATGIPDRFSGSGSGTDFTLTINRLEPEDFAVYYCQHHDTSPPLYTFGQGTKLEIK
- pseudovirus neutralization IC50 [1]: > 1 µg/mL
- pseudovirus neutralization IC50 [2]: 0.811 µg/mL
- pseudovirus neutralization IC50 [3]: 0.00102 µg/mL
- ELISA binding EC50 [4]: 0.00215 µg/mL

B4: C5208 (protein)
chain 1: QVQLVQSGAEVKKPGASVKISCKASGYTFTNFYIHWVRQAPGQGLEWMAIINPSAGSTSSAQKFQGRVSMTSDTSTNTVYMELSSLRSEDTAVYYCVRDFVLIPAMNSFDIWGQGTMVTVSS
chain 2: EIVLTQSPATLSLSPGERATLSCRASQSVGSYLAWYQQKPGQAPRLLIYGASNRATGIPARFSGSGSGTDFTLTISSLEPEDFAVYYCQHRSNWPPEITFGQGTRLEIK
- pseudovirus neutralization IC50 [1]: > 1 µg/mL
- pseudovirus neutralization IC50 [2]: > 1 µg/mL
- pseudovirus neutralization IC50 [3]: > 1 µg/mL
- ELISA binding EC50 [4]: 0.0265 µg/mL

B5: C5210 (protein)
chain 1: QVQLVESGGGVVQPGRSLRLSCAASGFTFSKYGMHWIRQAPGKGLEWVASIAFDGSDKYYADSVKGRFNISRDNSKDTLYLQMNSMRAEDTAVYYCAKQLSLYGSVNYYPDYWGQGTLVTVSS
chain 2: DIQMTQSPSSLSASIGDRVTITCQASQDINNYLNWYQQEPGRAPKLLIYDASNLEGGVPSRFSGGGSGTDFTFTISSLQPEDIATYYCQQYDNLPLTFGGGTKVEI
- pseudovirus neutralization IC50 [1]: > 1 µg/mL
- pseudovirus neutralization IC50 [2]: > 1 µg/mL
- pseudovirus neutralization IC50 [3]: 0.719 µg/mL
- ELISA binding EC50 [4]: 0.00484 µg/mL

B6: C5211 (protein)
chain 1: QVQLVESGGGVVKPGRSLRLSCVVSGFNFRHYGMHWVRQAQGKGLEWVAGISYDGDDKYYADSVKGRFTISRDNSKSRLYLQMNSLTAEDTAVYFCAKVQHSYAYPNNYFDYWGQGTLVTVSS
chain 2: DIQMTQSPSTLSASVGDRVTITCRASQSIGPWLAWYQQKPGKAPNLLIYKASSLESGVPSRFSGSGSGTEFTLTISSLQPDDFATYYCQQYNSYVSFGQGTKLEIK
- pseudovirus neutralization IC50 [1]: > 1 µg/mL
- pseudovirus neutralization IC50 [2]: > 1 µg/mL
- pseudovirus neutralization IC50 [3]: > 1 µg/mL
- ELISA binding EC50 [4]: 0.0945 µg/mL

B7: C5212 (protein)
chain 1: QVQLVESGGGVVQPGRSLRLSCAASGFTFSDYGMHWVRQAPGKGLEWVAVISYDGSNIRYAESVRGRFTISRDNSKNTVYLQMNSLRTEDTAVYYCAKAHFLDENWFDPWGQGALVTVSS
chain 2: EIVMTQSPATLSVSPGERATLSCRASQSISSNLAWYQQKPGQAPRLLIYGASTGATGIPARFSGSGSGTEFTLTISSLQSEDFAVYYCQQYNNWPLTFGPGTKVDIK
- pseudovirus neutralization IC50 [1]: > 1 µg/mL
- pseudovirus neutralization IC50 [2]: > 1 µg/mL
- pseudovirus neutralization IC50 [3]: 0.0182 µg/mL
- ELISA binding EC50 [4]: 0.0029 µg/mL

B8: C5215 (protein)
chain 1: EVQLVESGGGLVQPGESLRLSCVGSGFIFSNHWMSWVRQAPGKGLEWVATIKQDGGEKYYVDSVKGRFTISRDNAKKSVYLQMNSLRAEDTAVYYCAGRWSHFDSWGQGTLVTVSS
chain 2: DIQMTQSPSSLSASIGDRITITCRASQGISNSLAWYQQKPGKAPNLLLYAASTLESGVPSRFSGSGSGTAYTLTISSLQPEDFATYYCQQYYSLPLGFGGGTKVEIK
- pseudovirus neutralization IC50 [1]: > 1 µg/mL
- pseudovirus neutralization IC50 [2]: > 1 µg/mL
- pseudovirus neutralization IC50 [3]: 0.00111 µg/mL
- ELISA binding EC50 [4]: 0.00232 µg/mL
